Some of the results follow.

T1: UNK ZnF1-6 (called full-length) (human, UniProt Q9C0B0 30-357)
T1 sequence: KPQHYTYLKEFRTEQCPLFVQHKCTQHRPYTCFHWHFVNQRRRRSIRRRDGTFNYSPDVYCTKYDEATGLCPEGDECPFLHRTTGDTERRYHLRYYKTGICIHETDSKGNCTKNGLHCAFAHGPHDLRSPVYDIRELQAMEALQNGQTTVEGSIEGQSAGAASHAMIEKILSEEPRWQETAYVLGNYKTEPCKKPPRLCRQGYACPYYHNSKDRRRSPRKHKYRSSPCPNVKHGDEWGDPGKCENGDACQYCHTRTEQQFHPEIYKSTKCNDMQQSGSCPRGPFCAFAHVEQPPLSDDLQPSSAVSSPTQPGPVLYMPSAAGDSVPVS

B1: ENSG00000070961:be:win_4251|3pUTR|ENSG00000070961|bound_else_gene|NA|bound_elsewhere_windowed (ssRNA)
RNA: GGGAGUUCUACAGUCCGACGAUCGUACUAAAUUUUUGCCUACAAUUUACCUUGUUAAAUAUUGUAGAUAAAUUGCUAAUACUAAUAGCCAAAUAGAUAACACUAAUGCUUUGUUUAAAAAAACGAAAAAAACAAAACAAAACACAACAGAGGAUUGAGCAUCA
B2: chr19:2853326:2853433:+|CDS|ENSG00000186300|unk|total|mutant (ssRNA)
RNA: GGGAGUUCUACAGUCCGACGAUCCAAUGUGGGAAAACUUUCAAUUGGCCCAUAUCUUUACGAAAACAUAUGAGAACACAUACCCGAGAGAAACCCUAUGAAUGUAAGCAGUGUGGGAAAGCCUUCAGCUUGUCUGCUUGCUUUCAACAGAGGAUUGAGCAUCA
B3: chr3:193274788:193275041:-|three_prime_utr|ENSG00000187527|control|control|control (ssRNA)
RNA: GGGAGUUCUACAGUCCGACGAUCUCUCCAUUCAAGCAUUCAAAGUAUAUUUUCAAUGAAUUAAACCUUGCAGCAAGGGACCUUAGAUAGGCUUAUUCUGACUGUAUGCUUUACCAAUGAGAGAAAAAAAUGCAUUUCCUGUAUCAACAGAGGAUUGAGCAUCA
B4: chr16:1943973:1944836:-|three_prime_utr|ENSG00000140986|control|control|control (ssRNA)
RNA: GGGAGUUCUACAGUCCGACGAUCUUCCUGCGAGGUCUCAGAGCGCUGUGUAACCGCCCAAGGGGUUCACCUUGCCUGCUGCCUAGACAAAGCCGAUUCAUUAAGACAGGGGAAUUGCAAUAGAGAAAGAGUAAUUCACACAGACAACAGAGGAUUGAGCAUCA
B5: chr8:132572308:132572480:-|CDS|ENSG00000129295|control|control|control (ssRNA)
RNA: GGGAGUUCUACAGUCCGACGAUCGCACAUGGAGAAACUAGAAGUAGACCCUAGCAAGCACUCAUUCCCUGAUGUGACUAACAUAGUUCAAGAGAAAAAACACACACCCAGAAGACGACCUGAACCCAAAAUUAUACCAAGUGACAACAGAGGAUUGAGCAUCA
B6: chr14:39095999:39096113:-|CDS|ENSG00000100934|unk|FALSE|bound_elsewhere (ssRNA)
RNA: GGGAGUUCUACAGUCCGACGAUCACAAUGACAACCUAUUUGGAAUUCAUUCAACAAAAUGAAGAACGAGAUGGAGUCCGAUUUAGUUGGAAUGUUUGGCCAUCAAGUCGACUGGAAGCUACAAGAAUGGUUGUUCCUGUGGCACAACAGAGGAUUGAGCAUCA
B7: chr1:45660537:45660647:-|5pUTR|ENSG00000159592|unk|FALSE|unique (ssRNA)
RNA: GGGAGUUCUACAGUCCGACGAUCAUUUUUGAUCUAUUACCUUGAUGACAUUAUUUGUCCACACUUGAGCCCAUCUGUCUUUCUAGCUAUGACCUUGUUAUGAACAGUAUUUGCACUCGGUGCAAAUAUCCAUGUCUUACCUAACAACAGAGGAUUGAGCAUCA
B8: ENSG00000107863:be:win_51|CDS|ENSG00000107863|bound_else_gene|NA|bound_elsewhere_windowed (ssRNA)
RNA: GGGAGUUCUACAGUCCGACGAUCCAAGGCCUGCGAGGUCUCAAAAAAUAAAGAUGGAAAAGAACAAAGUGAAACUGUAUCACUGUCUGAAGAUGAAACAUUCUCCUGGCCAGGUCCCAAAACAGUUACGUUGAAAAGAACAUCCAACAGAGGAUUGAGCAUCA
B9: chr13:108229279:108229380:+|CDS|ENSG00000139826|unk|total|mutant (ssRNA)
RNA: GGGAGUUCUACAGUCCGACGAUCGCUAACCGCCUUGGCUUCAUGGUCUUGGGCUCUCUGCCGUAUUUCUCUUUUACCUUUAACCGUGACUUUUCAUCUGUAUGGAGGCAUUAUCUUACUUUUGUUAAUAUUCAUAUCAACCGCCAACAGAGGAUUGAGCAUCA
B10: chr7:95294748:95294849:+|3pUTR|ENSG00000158528|msi1|total|mutant (ssRNA)
RNA: GGGAGUUCUACAGUCCGACGAUCGAGAAAGCCGACAGAAUCAGCUUCUCCUGGAAAGUGAAAGCAUCAAGUUCUAUUUAUGGCCGACAGAGGGUCCUUAUUUGCUUGUCCGUGGUGUCUAUGUGGGCCUAUUGAGGGAAUGGUCAACAGAGGAUUGAGCAUCA
B11: chr1:156672197:156672316:-|CDS|ENSG00000132688|unk|total|mutant (ssRNA)
RNA: GGGAGUUCUACAGUCCGACGAUCGACAUUGCAAUCCCUGCAAAAGGAGAAUCAAGAACUAAUGAAAUCUCUUGAAGGUAAUCCCGAGACAUUUUUAUUUCCAGGAACGGAAAAUCAAGAAUCCGUAAGUUCUCUGCAAGAGAACAACAGAGGAUUGAGCAUCA
B12: chr16:74621626:74621727:-|3pUTR|ENSG00000168411|msi1|FALSE|unique (ssRNA)
RNA: GGGAGUUCUACAGUCCGACGAUCCAUCUCAAAAAAAACAAACAAACAAAAAAAAACCCUGAUGCCAUUCCCAGUCCCCGUUGUAGGACAUCACAUUUAUAAAUCCAGGCUUUAGUCUUCUGGGCUCCACCAGUCUCUGCCCCACAACAGAGGAUUGAGCAUCA
B13: ENSG00000136451:be:win_3401|3pUTR|ENSG00000136451|bound_else_gene|NA|bound_elsewhere_windowed (ssRNA)
RNA: GGGAGUUCUACAGUCCGACGAUCAUGUAAACAUGCCCUAUGUUUGUGCCUUUUAAUUAGUUUGUCUCAAUAAACAAAAUGUAGAGAAAAAUAUGUAGCUAUGACUUUGUUACAACUGUUCUUAUCCACAGUACAAAAAUGGUUCAACAGAGGAUUGAGCAUCA
B14: chr4:41699229:41699330:+|3pUTR|ENSG00000064042|msi1|total|mutant (ssRNA)
RNA: GGGAGUUCUACAGUCCGACGAUCGAUUACAUGAAUAUUGCACAUUCCCUUCUGGUUUCACAAACCCAUUUAUACAUAUUUCUCCGUGAGGCUCAUUGUACAUGUAUUGAAGCCCGAAUCGAGUCAAGAAAAAUAAAGCCCCAUCAACAGAGGAUUGAGCAUCA
B15: chr16:14672609:14672749:-|CDS|ENSG00000069764|control|control|control (ssRNA)
RNA: GGGAGUUCUACAGUCCGACGAUCGGCAGAGAACAAAUGCCAAGAACUGUUGUGCAAGUGUGACCAGGAGAUUGCUAACUGCUUAGCCCAAACUGAGUACAACUUAAAGUACCUCUUCUACCCCCAGUUCCUAUGUGAGCCGGACAACAGAGGAUUGAGCAUCA
B16: chr2:152649661:152649762:+|3pUTR|ENSG00000157827|msi1|total|mutant (ssRNA)
RNA: GGGAGUUCUACAGUCCGACGAUCCUACAAACCGACAACGUUGGCAUGUUCUUUUCUGUUUGUCUAUUAAUGGGCCUGCUUCUCCGCAAUAUCCGAAUGUUUUAUAAAAGCAAUUCAUGUUACUUUUCUGGUCUUUUCAUGGCACAACAGAGGAUUGAGCAUCA
B17: ENSG00000198589:be:win_9601|3pUTR|ENSG00000198589|bound_else_gene|NA|bound_elsewhere_windowed (ssRNA)
RNA: GGGAGUUCUACAGUCCGACGAUCUAAAUUCUUUGUAUGUUGUGAACUUUGAUCUCUAUUUCUCUUGCAACAGACUUCAAGUGGUCCCUCUUUUUUUCCUACACACUCAGCUCUUCUCUAAAAGCAAGGAUUUGGAAUGAACAACAACAGAGGAUUGAGCAUCA
B18: chr12:54238554:54238587:-|3pUTR|ENSG00000094916|msi1_unk|total|mutant (ssRNA)
RNA: GGGAGUUCUACAGUCCGACGAUCGGGAGCACCCAUUUUAAACCUGGAGAGAACCAUGAUGUUUUCUUCUUCAAAUAACAAUCCCGUUUUUUUUCCCCCAGUACUAAAAUUGUAUUGUCUUUCAGACAAUAUAAUUUUUAUUUACAACAGAGGAUUGAGCAUCA
B19: chr6:117694021:117694122:+|CDS|ENSG00000153989|msi1|FALSE|unique (ssRNA)
RNA: GGGAGUUCUACAGUCCGACGAUCGCUGUCUCCGGAAGAUGGAAAAGCAGAUAUUGUAAGAGCUGCUCAGGACUUUUGCCAGUUAGUAGCCCAGAAGCAAAAGAGACCCACAGAUUUGGAUGUAGAUACGUUAGCCAGUUUACUCAACAGAGGAUUGAGCAUCA
B20: chr6:41028375:41028595:-|CDS|ENSG00000124602|control|control|control (ssRNA)
RNA: GGGAGUUCUACAGUCCGACGAUCUGAGGAGCAGAACGGCAGCCUGCAGGAGCUGCACUACCUCAUGACCGUCAUGGAGCGGCUAGACUGCGCCUCCGCCAUCCAGAACUACCUGAGUGGGACACACGGCGGCAGCCCAGGCCCCAACAGAGGAUUGAGCAUCA
B21: chr12:114680981:114681101:-|CDS|ENSG00000135111|unk|FALSE|unique (ssRNA)
RNA: GGGAGUUCUACAGUCCGACGAUCUAAAGUGAGAUGUUCUGGGCUGGAUAAAAAAGCCAAAUACAUUUUAUUGAUGGACAUUAUAGCUGCUGAUGACUGUCGUUAUAAAUUUCACAAUUCUCGGUGGAUGGUGGCUGGUAAGGCCAACAGAGGAUUGAGCAUCA
B22: chr10:116672031:116672132:-|3pUTR|ENSG00000165868|msi1|FALSE|unique (ssRNA)
RNA: GGGAGUUCUACAGUCCGACGAUCCCUUUCCUGCCUUGCAUUAAUGCUAUCUCCCUGUGUACUGUUUCUCUUAAAUGAGCAGAUAGAAAUCUGCAGUGUUGGCAGAUAGGUGAUGGAGAGGAUGAUAAUUUUAUCUUCUGGCCACAACAGAGGAUUGAGCAUCA

In this assay the target is T1, UNK ZnF1-6 (called full-length). Description: nsRBNS (natural sequence RNA bind-n-seq); RBNS binding buffer (assumed for nsRBNS): 25 mM Tris pH 7.5, 150 mM KCl, 3 mM MgCl2, 0.01% Triton X-100, 500 ug/ml BSA, 20 U/ml SUPERase-In, 4 C; UNK is unkempt and MSI1 is Musashi-1; names of the RNAs are library labels; protein concentration not given here; high values mean tight binding.
Turning to B1, the binding signal worked out at 1.41 enrichment R.

As to B2, the binding signal came to 0.344 enrichment R.

As for B3, the binding signal is 0.417 enrichment R.

B4: the binding signal amounted to 0.744 enrichment R.

B5: the binding signal was 1.37 enrichment R.

Molecule B6 displayed a binding signal of 0.311 enrichment R.

With B7, the binding signal stood at 0.413 enrichment R.

B8: the binding signal amounted to 0.505 enrichment R.

B9 displayed a binding signal of 0.806 enrichment R.

In turn, B10 showed a binding signal of 0.626 enrichment R.

Molecule B11 gave a binding signal of 0.177 enrichment R.

With B12, the binding signal was determined as 1.16 enrichment R.

Molecule B13 displayed a binding signal of 1.79 enrichment R.

B14: the binding signal is 0.474 enrichment R.

As for B15, the binding signal was determined as 0.625 enrichment R.

Take B16: the binding signal came to 0.502 enrichment R.

The molecule B17 had a binding signal of 0.433 enrichment R.

The molecule B18 showed a binding signal of 0.639 enrichment R.

Molecule B19 yielded a binding signal of 1.36 enrichment R.

With B20, the binding signal is 0.806 enrichment R.

Consider B21, for which the binding signal was determined as 0.604 enrichment R.

B22 registered a binding signal of 0.373 enrichment R.

For the origin of these results see paper PMC12136788.
